Assay results: PubChem BioAssay AID360 (National Center for Advancing Translational Sciences (NCATS), 2006)
About 550 (1.1%) of roughly 48,000 compounds were called active. Roughly 4% stayed inconclusive and do not appear here. Rule as the data show it: active = potency below about 15 µM; inconclusive = mostly about 16 µM to 33 µM; inactive = weaker than that. The list shows a part of the results.

These compounds were tested against Lysosomal acid glucosylceramidase (Homo sapiens) (UniProt P04062) (assay: Glucocerebrosidase). Conditions: purified enzyme, resorufin glucoside fluorescence (screen aimed at inhibitors), 20 min; series mostly up to 77 µM.
How it was run: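 Wild-type enzyme at 0.2 nM final in 50mM citric acid/KH2PO4, 10mM sodium taurocholate, 0.01% tween-20, pH 5.9, with resorufin beta-D-glucopyranoside at 30 uM final. Compounds titrated, 20 min at RT, red fluorescence read; AC50 from titration.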
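Also: the screen sought inhibitors.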
Potency is read from the fitted curve at half-maximal effect.

Chain of UniProt P04062 (P04062 whole entry, looked up): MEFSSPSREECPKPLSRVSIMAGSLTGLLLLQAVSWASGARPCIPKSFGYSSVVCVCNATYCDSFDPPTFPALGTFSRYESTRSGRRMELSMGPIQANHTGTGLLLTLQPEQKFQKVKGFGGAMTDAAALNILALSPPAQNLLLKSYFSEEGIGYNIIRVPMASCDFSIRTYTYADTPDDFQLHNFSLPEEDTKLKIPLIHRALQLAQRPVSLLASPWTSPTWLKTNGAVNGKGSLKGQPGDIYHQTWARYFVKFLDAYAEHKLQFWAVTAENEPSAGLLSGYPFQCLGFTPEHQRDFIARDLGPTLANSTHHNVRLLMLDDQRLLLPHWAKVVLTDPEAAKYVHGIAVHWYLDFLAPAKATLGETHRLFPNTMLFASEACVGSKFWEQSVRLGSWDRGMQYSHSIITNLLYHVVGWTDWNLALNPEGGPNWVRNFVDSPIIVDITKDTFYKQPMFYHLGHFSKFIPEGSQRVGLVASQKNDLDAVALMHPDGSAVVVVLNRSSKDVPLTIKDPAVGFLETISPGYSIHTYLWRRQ

Potency, inactive:
COc1ccc(CNC(=O)c2ccc(=O)oc2)cc1OC > 76.9 µM
CCOC(=O)c1csc(NC(=O)c2ccc(S(=O)(=O)N(CC)CC)cc2)n1 > 76.9 µM
O=S(=O)(c1ccc(-c2csc(-c3cccnc3)n2)cc1)N1CCCC1 > 76.9 µM
CCCCn1c(SCC(N)=O)nnc1-c1cc(OC)c(OC)c(OC)c1 > 76.9 µM
CC1CCCCC1NC(=O)COc1ccc(-n2cnnn2)cc1 (centres undefined) > 76.9 µM
CC1CCCN(c2nc3ccsc3c(=O)s2)C1 (centres undefined) > 76.9 µM
Cc1ccc(CSc2nnc(-c3ccccn3)n2C)cc1 > 76.9 µM
CCC(Sc1nc2n[nH]c(C)c2c(=N)n1-c1cccc(Cl)c1C)C(=O)N(CC)CC (centres undefined) > 76.9 µM
Cc1c(NC(=O)c2cccc(NC(=O)c3ccco3)c2)cccc1C(=O)O > 76.9 µM
COc1ccc(C(NC(=O)C(C)(C)C)NC(=O)C(C)(C)C)cc1 > 76.9 µM
COc1ccc(NC(=O)C2CCCCN2CC(=O)OCc2ccccc2)cc1OC (centres undefined) > 76.9 µM
N#Cc1cc2sc3nc4ccccc4n3c2cc1C#N > 76.9 µM
COC(=O)C(C)Sc1nc2c([nH]c3ccccc32)c(=O)n1C (centres undefined) > 76.9 µM
COc1ccc2[nH]c(=O)c(CN(CCc3ccccc3)Cc3nnnn3CC3CCCO3)cc2c1 (centres undefined) > 76.9 µM
COc1ccc(S(=O)(=O)N(C)CC(=O)Nc2ccccc2C(F)(F)F)cc1OC > 76.9 µM
CCOC(=O)c1cnc(SC2CC(=O)N(c3ccc(OC)c(OC)c3)C2=O)nc1N (centres undefined) > 76.9 µM
N#C/C(=C\c1ccc[nH]1)Sc1nc2ccccc2s1 > 76.9 µM
CCCCn1nnc(NC(=O)c2ccco2)n1 > 76.9 µM
CCCn1c(SCc2ccccc2)nc2c1c(=O)[nH]c(=O)n2C > 76.9 µM
O=C(CS(=O)CC(=O)Nc1cccc2c1CCCC2)Nc1ccc(F)cc1 (centres undefined) > 76.9 µM
CC(Sc1nnc(COc2ccc3ccccc3c2)n1C)C(=O)O (centres undefined) > 76.9 µM
CCC(=O)N(Cc1cc2cccc(C)c2[nH]c1=O)c1ccccc1OC > 76.9 µM
COc1ccc(NC(=O)CNS(=O)(=O)c2ccccc2)cc1Cl > 76.9 µM
C=CCn1c(SCC(=O)NC2CCCCC2)nnc1-c1sc(N)nc1C > 76.9 µM
COc1cccc(-c2cc(C(F)(F)F)nc(N3CCN(c4ccccc4)CC3)n2)c1 > 76.9 µM
Cc1cc(N2CCC(C)CC2)n2ncc(-c3ccccc3)c2n1
O=C1CC(=O)N(c2ccccc2)c2ccccc21 > 76.9 µM
Cc1nc(SCC#N)c2c3c(sc2n1)CCC3 > 76.9 µM
O=C(CSc1nc2c(c(=O)n1-c1ccc(Cl)cc1)SCC2)Nc1nccs1 > 76.9 µM
O=C(O)CCc1nc2cccnc2n1Cc1ccccc1 > 76.9 µM
COc1nc(N(C)C)nc(N(OC)S(=O)(=O)c2ccccc2Cl)n1 > 76.9 µM
COc1ccc(CC(=O)Nc2c3c(nn2-c2ccccc2C)CS(=O)C3)cc1 (centres undefined) > 76.9 µM
COc1ccc(C2=NOC(C(=O)NCCN3CCOCC3)C2)cc1 (centres undefined) > 76.9 µM
CCc1cc(C(=O)c2ccccc2OC)c(N)s1 > 76.9 µM
COc1ccc(-c2cn3ccccc3n2)cc1OC
CC(C)(C)c1cc(=O)n2c(C#N)c(C#N)nc2[nH]1 > 76.9 µM
CC(C(=O)Nc1nc2ccccc2[nH]1)N1C(=O)C2CC=CCC2C1=O (centres undefined) > 76.9 µM
Cc1nnc(SCCn2c(N3CCN(C)CC3)nc3c2c(=O)[nH]c(=O)n3C)s1 > 76.9 µM
O=C(C1CCCCC1)N1CCC(c2nc3c(nnn3Cc3c(F)cccc3Cl)c(=O)[nH]2)CC1 > 76.9 µM
CCOC(=O)N1CCN(C(=O)CCCn2c(=S)[nH]c3ccccc3c2=O)CC1 > 76.9 µM
CCC(=O)N1CCc2cc(Br)cc(S(=O)(=O)NCCN3CCCCC3C)c21 (centres undefined) > 76.9 µM
O=C(O)c1ccc(CSc2nnc(-c3ccncc3)n2CC2CCCO2)cc1 (centres undefined) > 76.9 µM
COc1cccc(-c2csc(NC(C)=O)n2)c1 > 76.9 µM
O=C(NCC1CCCO1)C1CC(c2ccc(Cl)c(Cl)c2)=NO1 (centres undefined) > 76.9 µM
Cc1cc(NC(=O)CSc2nc3sc4c(c3c(=O)n2C)CCCC4)no1 > 76.9 µM
Cn1c(=O)c2c(n(C)c1=O)=NC1(CCCCC1)ON=2 > 76.9 µM
Cn1c(C(=O)O)c(CC(=O)NCC2COc3ccccc3O2)c2ccccc21 (centres undefined) > 76.9 µM
CCN(C(=O)c1ccccc1Cl)c1ccccc1 > 76.9 µM
Cc1cc(C(=O)Nc2c(C)n(C)n(-c3ccccc3)c2=O)cs1 > 76.9 µM
CC(=O)Nc1cccc2c1[n+]([O-])c(C)c(C)[n+]2[O-] > 76.9 µM
Cc1cc(C)cc(N2C(=O)C3CC=CCC3C2=O)c1 (centres undefined) > 76.9 µM
COc1ccc(S(=O)(=O)N2Cc3ccccc3CC2C(=O)N2CCOCC2)cc1 (centres undefined) > 76.9 µM
COc1ncnc2sc(-c3ccccc3)cc12 > 76.9 µM
COC(=O)c1ccc(Oc2nc(N3CCCCC3)nc(N3CCOCC3)n2)cc1
O=C(Nc1nnc(-c2ccccc2Cl)o1)c1cccnc1 > 76.9 µM
CCC1(C)Cc2c(C#N)c(N)n(N)c(=S)c2CO1 (centres undefined) > 76.9 µM
CC#CCN(CC#CC)S(=O)(=O)c1ccc(-n2cnnn2)c(OC)c1 > 76.9 µM
O=C(NCCC1=CCCCC1)c1cnsn1 > 76.9 µM
Cc1ccc(CNC(=O)C2CNc3cc(C)ccc3O2)cc1 (centres undefined) > 76.9 µM
Cc1ccc(NC(=O)C2CCCN(S(=O)(=O)c3c(C)noc3C)C2)c(C)c1 (centres undefined) > 76.9 µM
Cn1c(SCC(=O)NCc2cccs2)nnc1-c1ccco1 > 76.9 µM
COc1ccc2c(c1)N(C)C(=O)CC(c1ccccc1)=N2 > 76.9 µM
CCOc1ccc(S(=O)(=O)N(CC(=O)N2CCc3ccccc32)Cc2ccco2)cc1 > 76.9 µM
O=C(N1CCOCC1)N1CCC(NC(=O)C23CC4CC(CC(C4)C2)C3)CC1 > 76.9 µM
O=C1CCCC2=C1C1(CCCC1)N=C(Nc1nc3ccccc3s1)N2 > 76.9 µM
CCCCn1c(SCC(=O)N2CCCC2)nc2c1c(=O)n(C)c(=O)n2C > 76.9 µM
Cc1sc(NC(=O)CSc2nnc(-c3ccccc3)o2)c(C#N)c1C > 76.9 µM
Cc1cc(C)c(C(N)=O)c(NCCc2ccccc2)n1 > 76.9 µM
COc1cc(-c2nnc(-c3ccco3)o2)ccc1OCc1ccccc1 > 76.9 µM
COC(=O)C1=C(C)NC(=O)C1(Nc1ccc(Cl)cn1)C(F)(F)F (centres undefined) > 76.9 µM
CC1CC(C)CN(CC(=O)Nc2ccc(S(N)(=O)=O)cc2)C1 (centres undefined) > 76.9 µM
Cn1nc(-c2ccc(C(=O)N3CCN(c4ccccc4)CC3)cc2)c2ccccc2c1=O > 76.9 µM
O=C(c1cc2c(s1)CCC2)N1C(=O)c2ccccc2S1(=O)=O > 76.9 µM
Cc1ccc(-c2ccc(=O)n(CC(=O)N3CCN(c4cccc(C)c4)C(C)C3)n2)cc1 (centres undefined) > 76.9 µM
Cc1cc(C)c2[nH]c(=O)c(C(c3nnnn3Cc3ccc4c(c3)OCO4)N3CCCC3)cc2c1 (centres undefined) > 76.9 µM
CCCCOC(=O)Cn1c(=N)n(CCN2CCOCC2)c2ccccc21 > 76.9 µM
O=C(c1ccc(F)cc1)c1cn[nH]c1-c1ccccc1O > 76.9 µM
CCCCn1c(=O)c(C(=O)OCC)c(O)c2ccccc21 > 76.9 µM
Cc1cc(C)c(S(=O)(=O)N(C)Cc2cnn(C)c2)c(C)c1 > 76.9 µM
O=C(NCC(=O)N(Cc1cccs1)C(C(=O)NC1CCCC1)c1ccco1)c1cccs1 (centres undefined) > 76.9 µM
Cc1cnc(C(=O)Nc2ccccc2-n2cccc2)cn1 > 76.9 µM
O=S(=O)(Nc1cccnc1)c1cccc(C(F)(F)F)c1 > 76.9 µM
CCOC(=O)c1ccc(NC(=O)CCc2nc(-c3ccccc3Cl)no2)cc1 > 76.9 µM
Cn1c2c(c3ccccc31)CCSC2=O > 76.9 µM
O=C(CSc1n[nH]c(-c2ccncc2)n1)Nc1ccccn1 > 76.9 µM
O=C(Nc1ccc2c(c1)nc1n2CCCCC1)c1cc(S(=O)(=O)N2CCOCC2)ccc1Cl
CC(=O)c1ccc(OCC(O)CN(C)Cc2cccs2)cc1 (centres undefined) > 76.9 µM
CCn1c(CC(=O)Nc2ccccc2F)nnc1SCC(=O)N1CCN(c2ccccc2)CC1 > 76.9 µM
CC(=O)Nc1cc2c(cc1C(=O)C(C)C)OCCO2 > 76.9 µM
CCOc1ccc(NCC2CCOC(C)(C)C2)cc1 (centres undefined) > 76.9 µM
CCN(CC)C(=O)CSc1nnc(-c2cc3ccccc3cc2O)n1CC > 76.9 µM
CCOc1cc(NC(=O)c2ccco2)c(OCC)cc1NC(=O)COc1ccccc1C > 76.9 µM
CCOC(=O)N1CCN(C(=O)c2nn(-c3cc(OC)cc(OC)c3)c(=O)c3ccccc23)CC1 > 76.9 µM
COCc1cc(C)nc(SCC(=O)Nc2cccc(C)c2C)c1C#N > 76.9 µM
Cc1ccc(SCC(=O)N2CCOCC2)cc1 > 76.9 µM
COc1ccc(N2CCN(S(=O)(=O)c3ccc(C(=O)NCc4ccco4)cc3)CC2)cc1 > 76.9 µM
O=C(CSc1nnc(CCCO)n1-c1ccccc1)Nc1nccs1 > 76.9 µM
N#Cc1cccc(-c2cn(S(=O)(=O)c3ccc(Cl)cc3)nc2N)c1 > 76.9 µM
Cc1ccc(CCNC(=O)C2CCN(S(=O)(=O)c3cccc4nonc34)CC2)cc1 > 76.9 µM
O=C(Nc1cccc(C(F)(F)F)c1)C1CCCN(S(=O)(=O)c2cnc[nH]2)C1 (centres undefined) > 76.9 µM
Cc1ccc(S(=O)(=O)N(C)CC(=O)OCc2nnc(-c3ccccc3)o2)cc1 > 76.9 µM
C[C@H](NC(=O)C1(c2ccccc2)CCN(C(=O)[C@H]2CSCN2C(=O)OC(C)(C)C)CC1)C(=O)O > 76.9 µM
Cc1onc(-c2c(F)cccc2Cl)c1C(=O)N1CCCc2ccccc21 > 76.9 µM
CC(=O)Nc1ccc(S(=O)(=O)N2CCN(C(=O)N3CCCCCC3)CC2)cc1 > 76.9 µM
